This note sets out measurements from the GPR68 mutational scans of Howard et al. (2025).

Sequences and labels used below:
B1: GPR68, Q15743 (parent)
chain: MGNITADNSSMSCTIDHTIHQTLAPVVYVTVLVVGFPANCLSLYFGYLQIKARNELGVYLCNLTVADLFYICSLPFWLQYVLQHDNWSHGDLSCQVCGILLYENIYISVGFLCCISVDRYLAVAHPFRFHQFRTLKAAVGVSVVIWAKELLTSIYFLMHEEVIEDENQHRVCFEHYPIQAWQRAINYYRFLVGFLFPICLLLASYQGILRAVRRSHGTQKSRKDQIQRLVLSTVVIFLACFLPYHVLLLVRSVWEASCDFAKGVFNAYHFSLLLTSFNCVADPVLYCFVSETTHRDLARLRGACLAFLTCSRTGRAREAYPLGAPEASGKSGAQGEEPELLTKLHPAFQTPNSPGSGGFPTGRLA

The least precise scores are not listed. Not listed are two conditions whose scores span a narrow range. In variant names, del marks residues removed and ins residues inserted between the two positions. For part of these data: The concentration of ogerin is not given here.

Variants of B1 are the subject of data set [1]. Kind of data set: cAMP reporter score (Enrich2 score, wild type = 0); higher = more signal; HEK293T, FACS bins.
Variants of B1 are the subject of data set [2]. Kind of data set: surface expression score (Enrich2 score, wild type = 0); higher = more signal; HEK293T, FACS bins.

As for MGNITADNSSMSCTIDHTIHQTLAPVVYVTVLVVGFPANCLSLYFGYLQIKARNELGVYLCNLTVADLFYICSLPFWLQYVLQHDNWSHGDLSCQVCGILLYENIYISVGFLCCISVDRYLAVAHPFRFHQFRTLKAAVGVSVVIWAKELLTSIYFLMHEEVIEDENQHRVCFEHYPIQAWQRAINYYRFLVGFLFPICLLLASYQGILRAVRRSHGTQKSRKDQIQRLVLSTVVIFLACFLPYHVLLLVRSVWEASCDFAKGVFNAYHFSLLLTSFNCVADPVLICFVSETTHRDLARLRGACLAFLTCSRTGRAREAYPLGAPEASGKSGAQGEEPELLTKLHPAFQTPNSPGSGGFPTGRLA [Y286I], the cAMP reporter score was -0.549 in data set [1] (pH 5.5); -1.11 in data set [1] (pH 6); -1.41 in data set [1] (pH 6.5, modulator: ogerin). Also, the surface expression score in data set [2] came to 1.37.

For the variant MGNITADNSSMSCTIDHTIHQTLAPVVYVTVLVVGFPANCLSLYFGYLQIKARNELGVYLCNLTVADLFYICSLPFWLQYVLQHDNWSHGDLSCQVCGILLYENIYISVGFLCCISVDRYLAVAHPFRFHQFRTLKAAVGVSVVIWAKELLTSIYFLMHEEVIEDENQHRVCFEHYPIQAWQRAINYYRFLVGFLFPICLLLASYQGILRAVRRSHGTQKSRKDQIQRLVLSTVVIFLACFLPYHVLLLVRSVWEASCDFAKGVFNAYHFSLLLTSFNCVADPVLKCFVSETTHRDLARLRGACLAFLTCSRTGRAREAYPLGAPEASGKSGAQGEEPELLTKLHPAFQTPNSPGSGGFPTGRLA [Y286K], the cAMP reporter score in data set [1] (pH 5.5) is -1.55; in data set [1] (pH 6), -1; in data set [1] (pH 6, modulator: ogerin), -1.52; in data set [1] (pH 6.5, modulator: ogerin), -1.33. Besides, the surface expression score in data set [2] was -1.88.
